# Measurements taken from publication PMC9574860, “Chemical Toolkit for PARK7: Potent, Selective, and High-Throughput” (Journal of Medicinal Chemistry, 2022).
# About 400 (5.1%) of roughly 7,900 compounds showed an effect of 50% or more. The list shows a part of the results.
# Target: Parkinson's disease protein 7 (PARK7/DJ1) (human, UniProt Q99497)
# Test: primary screen, percent inhibition; read as competition with a fluorescent probe by fluorescence polarization; higher = more effect of the substance
# Settings: 100 µM
# In short: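 Fluorescence-polarization probe displacement (JYQ-107, 20 nM final, 2 h) after 2 h preincubation of PARK7 (0.2 μM final) with each fragment at 100 μM final. Read-out ex/em 480/520 nm; remaining activity derived from FP signal loss relative to reference controls.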
# Sequence of Parkinson's disease protein 7 (PARK7/DJ1) (Q99497 whole entry, looked up): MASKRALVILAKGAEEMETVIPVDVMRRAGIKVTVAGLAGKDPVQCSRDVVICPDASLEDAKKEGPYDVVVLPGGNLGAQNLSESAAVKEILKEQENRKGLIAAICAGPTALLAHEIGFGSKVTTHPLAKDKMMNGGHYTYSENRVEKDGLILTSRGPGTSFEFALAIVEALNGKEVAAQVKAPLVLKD
row,Compound,Inhibition % [%]
1,N#Cc1c(N2CCCC(CC(N)=O)C2)nc2ccccn12 (stereo not shown),2.1
2,C=CC(=O)NCc1nccc2c1CCCC2,5.36
3,C=CC(=O)N1CCC(c2cccnc2)CC1,11.5
4,COc1cccc(Cn2cnc(C#N)n2)c1,4.76
5,C=CC(=O)NCC1CCN(c2ccccc2)CC1,3.72
6,C=CC(=O)Nc1cccc2c1CCO2,3.25
7,O=C1SCCN1CN1CC=C(c2ccccc2)CC1,2.16
8,C=CC(=O)Nc1cc(F)cc(N2CCOCC2)c1,6.03
9,COc1ccc(N2CC(N)C2=O)cc1.Cl (stereo not shown),-4.76
10,Cc1cnc2ccccc2c1S(=O)(=O)F,95.2
11,COc1ccc(Cl)c(S(=O)(=O)OCC(F)(F)F)c1,7.55
12,C=CC(=O)NCC1CCCCS1 (stereo not shown),8.11
13,O=C(CCl)NC(=O)NCCc1cccs1,11.2
14,Cl.O=S(=O)(F)CC1CNCCO1 (stereo not shown),11
15,CC(=O)Nc1ccc(C=C(C#N)C(N)=O)cc1,6.27
16,COc1ccccc1C(C)NC(=O)CCl (stereo not shown),10.5
17,C=CC(=O)N[C@@H]1CCCN(S(=O)(=O)C2CC2)C1,2.73
18,C=CC(=O)N1CCN(S(C)(=O)=O)CC1(C)C,4.46
19,Cc1cc(C)c(C#N)c(S)n1,4.97
20,CCn1ncnc1CN(C#N)c1ccc(F)cc1,6.79
21,O=C(CCl)Nc1nc(C2CC2)no1,31
22,Cc1ccc(Nc2oc(C)nc2C#N)cc1,7.87
23,COC(=O)C=C1Nc2cc(C)ccc2OC1=O,4.25
24,O=C(Nc1ccc(CCO)cc1)c1cccnc1S,7.16
25,Cc1ccc(C=C(C#N)C(=O)NC(C)C)s1,3.92
26,CN(C(=O)c1ccc(B2OC(C)(C)C(C)(C)O2)c(Cl)c1)c1ccccc1,4.96
27,C=CC(=O)N1CCC(C(F)(F)F)C2(CCC2)C1 (stereo not shown),8.28

row,Compound,Inhibition % [%]
1,CCc1cc(C(=O)NNC(=O)CCl)sc1C,9.95
2,C=CC(=O)NCc1nnc(-c2ccc(Cl)cc2)o1,-0.196
3,CNC1CCCN(C(=O)C=Cc2ccc(Cl)cc2)C1 (stereo not shown),11.8
4,CSC1(C(=O)NC2CN(c3ccccc3)C2=O)CC1 (stereo not shown),2.01
5,Cc1cccc(N(Cc2ccccc2)C(=O)CCl)c1,9.42
6,CCc1cccc(N(C#N)CC(=O)NC2CCOCC2)c1,2.19
7,Cl.O=C(CCl)c1c[nH]c2ncccc12,10.6
8,N#Cc1ncn(CC(=O)Nc2cc(Cl)ccc2F)n1,3.72
9,C=CC(=O)N1CCOC(c2cccc(Cl)c2)C1 (stereo not shown),9.66
10,CC1(C)OB(c2cnc(N3CCC(=O)CC3)nc2)OC1(C)C,6.29
11,C=CC(=O)N1CCC(Cc2ccnn2C)CC1,8.86
12,CCc1ccccc1N1C(=O)CN=C1S,4.97
13,CC(C)(C)C(CO)Nc1ccc(C(F)(F)F)c(C#N)n1 (stereo not shown),12.1
14,Cc1ccc(N(C)C(=O)n2nc(C)cc2C)cc1,2.51
15,O=C(CCCl)Nc1cccc(C(F)(F)F)c1,5.59
16,O=C(CCC1CCCC1)NC1C=CS(=O)(=O)C1 (stereo not shown),6.99
17,CC(N)C1CCCCN1C(=O)C=Cc1cncc(F)c1 (stereo not shown),-0.26
18,O=C(CCl)Nc1ccc(F)cc1Cl,13.8
19,Cn1c(C#N)c2ccccn2c1=O,6.65
20,N#CC(=Cc1ccc(Cl)cc1)C(=O)Nc1ccncc1,2.9
21,Cc1nc2ccccc2nc1SC1CCOC1=O (stereo not shown),70.3
22,C=C(C)Cn1c(C#N)nc(C)c1C,2.82
23,C=CC(=O)Nc1cnn(CC2CCCO2)c1 (stereo not shown),9.71
24,Cc1nc(-c2ccc(C)c(NC(=O)CCl)c2)n[nH]1,4.91
25,O=C(O)c1cccc(S(=O)(=O)F)c1,95.1
26,O=C(CCl)NNC(=O)C1(c2ccc(Cl)cc2)CC1,10.4
27,N#Cc1ncn(CC(=O)NC2CCCc3ccccc32)n1 (stereo not shown),4.52

row,Compound,Inhibition % [%]
1,O=C1SCCN1CC(=O)N1CCCc2c(F)cc(F)cc21,13.6
2,C=CC(=O)N1CCC(c2noc(C3CC3)n2)CC1,2.86
3,Cc1ncc(C=CC(=O)N2CCC(CN)C2)s1 (stereo not shown),12.9
4,C=CC(=O)N1CCN(Cc2cc(C)no2)CC1,4.28
5,Cn1cc(CCCNc2ccc(Cl)c(C#N)n2)cn1,21.8
6,Cc1nn(C)c(C)c1C=CC(=O)N1CCC(C)CC1,14.3
7,Cc1cc(C(=O)CCl)c(F)cc1F,5.96
8,C=CC(=O)N1CCN(C2CC2)C(C(N)=O)C1 (stereo not shown),4.01
9,COc1cc(OC)c(C(=O)CCl)c(OC)c1,5.2
10,C=CC(=O)N1Cc2ccccc2CC1CC (stereo not shown),-4.38
11,CC1CC1c1ccc(C=CC(=O)N2CCC(O)CC2)o1 (stereo not shown),2.77
12,CN1CCN(c2oc(-c3ccc(F)cc3)nc2C#N)CC1,5.44
13,OC1(CC2CO2)CCCC1 (stereo not shown),15.9
14,CC1(C)C(=O)NC1C1CC1 (stereo not shown),-4.69
15,C=CC(=O)N1CCCc2cc(S(C)(=O)=O)ccc21,-0.0694
16,COc1ccc(C(C)C)cc1S(=O)(=O)n1cnc(C)c1,8.19
17,CS(=O)(=O)OCC1(C#N)CCC1,-0.83
18,Cc1ccc(C=CC(=O)N2CCOCC2C(=O)O)o1 (stereo not shown),10.4
19,CC(NC(=O)CCl)c1ccccc1Br (stereo not shown),5.44
20,C=CC(=O)N1CCN(Cc2cc3ccccc3o2)CC1,10.5
21,CCOc1cc(S(=O)(=O)n2cccn2)ccc1Cl,-0.661
22,C=CC(=O)N1CCCC1c1cccs1 (stereo not shown),4.68
23,CCCNC(=O)C(C#N)=Cc1nc(C)c(C)[nH]1,13.8
24,C=CC(=O)Nc1cnn2ccccc12,97
25,O=C(O)C1Cc2ccccc2CN1C(=O)CCl (stereo not shown),40.5
